# Data published in the supplement of paper PMC12230231.
# Tested on: SIVsab (simian immunodeficiency virus of sabaeus monkeys), single-cycle GFP reporter, in CRFK cells
# Test: enrichment among infected cells over input (fold); higher = weaker restriction
# Conditions: library: human / rhesus combinations
# Description: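 Pools of CRFK cells expressing variants of the TRIM5α v1 loop were challenged with the single-cycle reporter, sorted by GFP and sequenced; mean of two replicates.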
row,Sequence,enrichment
1,"MASGILLNVKEEVTCPICLELLTEPLSLHCGHSFCQACITANHKKSMLYKEGERSCPVCRISYQPENIQPNRHVANIVEKLREVKLSPEEGQKVDHCARHGEKLLLFCQEDSKVICWLCERSQEHRGHHTFLMEEVAQEYHVKLQTALEMLRQKQQEAEKLEADIREEKASWKIQIDYDKTNVSADFEQLREILDWEESNELQNLEKEEEDILKSLTKSETEMVQQTQYMRELISELEHRLQGSMMDLLQGVDGIIKRIENMTLKKPKTFHKNQRRVFRAPDLKGMLDMFRELTDARRYWVDVTLAPNNISHAVIAEDKRQVSSRNPQIMYGARGTLFTFPTFVNFNYCTGVLGSQSITSGKHYWEVDVSKKSAWILGVCAGFQSDAMYNIEQNENYQPKYGYWVIGLQEGVKYSVFQDGSSHTPFAPFIVPLSVIICPDRVGVFVDYEACTVSFFNITNHGFLIYKFSQCSFSKPVFPYLNPRKCTVPMTLCSPSS [rhesus TRIM5α, 332-344 = GARGTLFTFPTFV]",0.446 ± 0.19
2,"MASGILLNVKEEVTCPICLELLTEPLSLHCGHSFCQACITANHKKSMLYKEGERSCPVCRISYQPENIQPNRHVANIVEKLREVKLSPEEGQKVDHCARHGEKLLLFCQEDSKVICWLCERSQEHRGHHTFLMEEVAQEYHVKLQTALEMLRQKQQEAEKLEADIREEKASWKIQIDYDKTNVSADFEQLREILDWEESNELQNLEKEEEDILKSLTKSETEMVQQTQYMRELISELEHRLQGSMMDLLQGVDGIIKRIENMTLKKPKTFHKNQRRVFRAPDLKGMLDMFRELTDARRYWVDVTLAPNNISHAVIAEDKRQVSSRNPQIMYGAPGTRYTFQTLTNFNYCTGVLGSQSITSGKHYWEVDVSKKSAWILGVCAGFQSDAMYNIEQNENYQPKYGYWVIGLQEGVKYSVFQDGSSHTPFAPFIVPLSVIICPDRVGVFVDYEACTVSFFNITNHGFLIYKFSQCSFSKPVFPYLNPRKCTVPMTLCSPSS [rhesus TRIM5α, 332-344 = GAPGTRYTFQTLT]",1.05 ± 0.41
3,"MASGILLNVKEEVTCPICLELLTEPLSLHCGHSFCQACITANHKKSMLYKEGERSCPVCRISYQPENIQPNRHVANIVEKLREVKLSPEEGQKVDHCARHGEKLLLFCQEDSKVICWLCERSQEHRGHHTFLMEEVAQEYHVKLQTALEMLRQKQQEAEKLEADIREEKASWKIQIDYDKTNVSADFEQLREILDWEESNELQNLEKEEEDILKSLTKSETEMVQQTQYMRELISELEHRLQGSMMDLLQGVDGIIKRIENMTLKKPKTFHKNQRRVFRAPDLKGMLDMFRELTDARRYWVDVTLAPNNISHAVIAEDKRQVSSRNPQIMYGAPGTRYTFQSFTNFNYCTGVLGSQSITSGKHYWEVDVSKKSAWILGVCAGFQSDAMYNIEQNENYQPKYGYWVIGLQEGVKYSVFQDGSSHTPFAPFIVPLSVIICPDRVGVFVDYEACTVSFFNITNHGFLIYKFSQCSFSKPVFPYLNPRKCTVPMTLCSPSS [rhesus TRIM5α, 332-344 = GAPGTRYTFQSFT]",1.27 ± 0.079
4,"MASGILLNVKEEVTCPICLELLTEPLSLHCGHSFCQACITANHKKSMLYKEGERSCPVCRISYQPENIQPNRHVANIVEKLREVKLSPEEGQKVDHCARHGEKLLLFCQEDSKVICWLCERSQEHRGHHTFLMEEVAQEYHVKLQTALEMLRQKQQEAEKLEADIREEKASWKIQIDYDKTNVSADFEQLREILDWEESNELQNLEKEEEDILKSLTKSETEMVQQTQYMRELISELEHRLQGSMMDLLQGVDGIIKRIENMTLKKPKTFHKNQRRVFRAPDLKGMLDMFRELTDARRYWVDVTLAPNNISHAVIAEDKRQVSSRNPQIMYQARGTLFTFQSLVNFNYCTGVLGSQSITSGKHYWEVDVSKKSAWILGVCAGFQSDAMYNIEQNENYQPKYGYWVIGLQEGVKYSVFQDGSSHTPFAPFIVPLSVIICPDRVGVFVDYEACTVSFFNITNHGFLIYKFSQCSFSKPVFPYLNPRKCTVPMTLCSPSS [rhesus TRIM5α, 332-344 = QARGTLFTFQSLV]",1.47 ± 0.3
5,"MASGILLNVKEEVTCPICLELLTEPLSLHCGHSFCQACITANHKKSMLYKEGERSCPVCRISYQPENIQPNRHVANIVEKLREVKLSPEEGQKVDHCARHGEKLLLFCQEDSKVICWLCERSQEHRGHHTFLMEEVAQEYHVKLQTALEMLRQKQQEAEKLEADIREEKASWKIQIDYDKTNVSADFEQLREILDWEESNELQNLEKEEEDILKSLTKSETEMVQQTQYMRELISELEHRLQGSMMDLLQGVDGIIKRIENMTLKKPKTFHKNQRRVFRAPDLKGMLDMFRELTDARRYWVDVTLAPNNISHAVIAEDKRQVSSRNPQIMYQAPGTLFPSFTNFNYCTGVLGSQSITSGKHYWEVDVSKKSAWILGVCAGFQSDAMYNIEQNENYQPKYGYWVIGLQEGVKYSVFQDGSSHTPFAPFIVPLSVIICPDRVGVFVDYEACTVSFFNITNHGFLIYKFSQCSFSKPVFPYLNPRKCTVPMTLCSPSS [rhesus TRIM5α, 332-344 = QAPGTLFPSFT]",0.376 ± 0.35
6,"MASGILLNVKEEVTCPICLELLTEPLSLHCGHSFCQACITANHKKSMLYKEGERSCPVCRISYQPENIQPNRHVANIVEKLREVKLSPEEGQKVDHCARHGEKLLLFCQEDSKVICWLCERSQEHRGHHTFLMEEVAQEYHVKLQTALEMLRQKQQEAEKLEADIREEKASWKIQIDYDKTNVSADFEQLREILDWEESNELQNLEKEEEDILKSLTKSETEMVQQTQYMRELISELEHRLQGSMMDLLQGVDGIIKRIENMTLKKPKTFHKNQRRVFRAPDLKGMLDMFRELTDARRYWVDVTLAPNNISHAVIAEDKRQVSSRNPQIMYQAPGTRYPSLVNFNYCTGVLGSQSITSGKHYWEVDVSKKSAWILGVCAGFQSDAMYNIEQNENYQPKYGYWVIGLQEGVKYSVFQDGSSHTPFAPFIVPLSVIICPDRVGVFVDYEACTVSFFNITNHGFLIYKFSQCSFSKPVFPYLNPRKCTVPMTLCSPSS [rhesus TRIM5α, 332-344 = QAPGTRYPSLV]",0.36 ± 0.12
7,"MASGILLNVKEEVTCPICLELLTEPLSLHCGHSFCQACITANHKKSMLYKEGERSCPVCRISYQPENIQPNRHVANIVEKLREVKLSPEEGQKVDHCARHGEKLLLFCQEDSKVICWLCERSQEHRGHHTFLMEEVAQEYHVKLQTALEMLRQKQQEAEKLEADIREEKASWKIQIDYDKTNVSADFEQLREILDWEESNELQNLEKEEEDILKSLTKSETEMVQQTQYMRELISELEHRLQGSMMDLLQGVDGIIKRIENMTLKKPKTFHKNQRRVFRAPDLKGMLDMFRELTDARRYWVDVTLAPNNISHAVIAEDKRQVSSRNPQIMYQAPGTRFTFQTFTNFNYCTGVLGSQSITSGKHYWEVDVSKKSAWILGVCAGFQSDAMYNIEQNENYQPKYGYWVIGLQEGVKYSVFQDGSSHTPFAPFIVPLSVIICPDRVGVFVDYEACTVSFFNITNHGFLIYKFSQCSFSKPVFPYLNPRKCTVPMTLCSPSS [rhesus TRIM5α, 332-344 = QAPGTRFTFQTFT]",1.04 ± 0.12
8,"MASGILLNVKEEVTCPICLELLTEPLSLHCGHSFCQACITANHKKSMLYKEGERSCPVCRISYQPENIQPNRHVANIVEKLREVKLSPEEGQKVDHCARHGEKLLLFCQEDSKVICWLCERSQEHRGHHTFLMEEVAQEYHVKLQTALEMLRQKQQEAEKLEADIREEKASWKIQIDYDKTNVSADFEQLREILDWEESNELQNLEKEEEDILKSLTKSETEMVQQTQYMRELISELEHRLQGSMMDLLQGVDGIIKRIENMTLKKPKTFHKNQRRVFRAPDLKGMLDMFRELTDARRYWVDVTLAPNNISHAVIAEDKRQVSSRNPQIMYQAPGTLYTFPTFVNFNYCTGVLGSQSITSGKHYWEVDVSKKSAWILGVCAGFQSDAMYNIEQNENYQPKYGYWVIGLQEGVKYSVFQDGSSHTPFAPFIVPLSVIICPDRVGVFVDYEACTVSFFNITNHGFLIYKFSQCSFSKPVFPYLNPRKCTVPMTLCSPSS [rhesus TRIM5α, 332-344 = QAPGTLYTFPTFV]",0.813 ± 0.17
9,"MASGILLNVKEEVTCPICLELLTEPLSLHCGHSFCQACITANHKKSMLYKEGERSCPVCRISYQPENIQPNRHVANIVEKLREVKLSPEEGQKVDHCARHGEKLLLFCQEDSKVICWLCERSQEHRGHHTFLMEEVAQEYHVKLQTALEMLRQKQQEAEKLEADIREEKASWKIQIDYDKTNVSADFEQLREILDWEESNELQNLEKEEEDILKSLTKSETEMVQQTQYMRELISELEHRLQGSMMDLLQGVDGIIKRIENMTLKKPKTFHKNQRRVFRAPDLKGMLDMFRELTDARRYWVDVTLAPNNISHAVIAEDKRQVSSRNPQIMYQAPGTLFTFQSFVNFNYCTGVLGSQSITSGKHYWEVDVSKKSAWILGVCAGFQSDAMYNIEQNENYQPKYGYWVIGLQEGVKYSVFQDGSSHTPFAPFIVPLSVIICPDRVGVFVDYEACTVSFFNITNHGFLIYKFSQCSFSKPVFPYLNPRKCTVPMTLCSPSS [rhesus TRIM5α, 332-344 = QAPGTLFTFQSFV]",0.718 ± 0.6
10,"MASGILLNVKEEVTCPICLELLTEPLSLHCGHSFCQACITANHKKSMLYKEGERSCPVCRISYQPENIQPNRHVANIVEKLREVKLSPEEGQKVDHCARHGEKLLLFCQEDSKVICWLCERSQEHRGHHTFLMEEVAQEYHVKLQTALEMLRQKQQEAEKLEADIREEKASWKIQIDYDKTNVSADFEQLREILDWEESNELQNLEKEEEDILKSLTKSETEMVQQTQYMRELISELEHRLQGSMMDLLQGVDGIIKRIENMTLKKPKTFHKNQRRVFRAPDLKGMLDMFRELTDARRYWVDVTLAPNNISHAVIAEDKRQVSSRNPQIMYGARGTLYTFPSLTNFNYCTGVLGSQSITSGKHYWEVDVSKKSAWILGVCAGFQSDAMYNIEQNENYQPKYGYWVIGLQEGVKYSVFQDGSSHTPFAPFIVPLSVIICPDRVGVFVDYEACTVSFFNITNHGFLIYKFSQCSFSKPVFPYLNPRKCTVPMTLCSPSS [rhesus TRIM5α, 332-344 = GARGTLYTFPSLT]",1.18 ± 0.26
11,"MASGILLNVKEEVTCPICLELLTEPLSLHCGHSFCQACITANHKKSMLYKEGERSCPVCRISYQPENIQPNRHVANIVEKLREVKLSPEEGQKVDHCARHGEKLLLFCQEDSKVICWLCERSQEHRGHHTFLMEEVAQEYHVKLQTALEMLRQKQQEAEKLEADIREEKASWKIQIDYDKTNVSADFEQLREILDWEESNELQNLEKEEEDILKSLTKSETEMVQQTQYMRELISELEHRLQGSMMDLLQGVDGIIKRIENMTLKKPKTFHKNQRRVFRAPDLKGMLDMFRELTDARRYWVDVTLAPNNISHAVIAEDKRQVSSRNPQIMYGARGTRYTFPTLVNFNYCTGVLGSQSITSGKHYWEVDVSKKSAWILGVCAGFQSDAMYNIEQNENYQPKYGYWVIGLQEGVKYSVFQDGSSHTPFAPFIVPLSVIICPDRVGVFVDYEACTVSFFNITNHGFLIYKFSQCSFSKPVFPYLNPRKCTVPMTLCSPSS [rhesus TRIM5α, 332-344 = GARGTRYTFPTLV]",1.07 ± 0.59
12,"MASGILLNVKEEVTCPICLELLTEPLSLHCGHSFCQACITANHKKSMLYKEGERSCPVCRISYQPENIQPNRHVANIVEKLREVKLSPEEGQKVDHCARHGEKLLLFCQEDSKVICWLCERSQEHRGHHTFLMEEVAQEYHVKLQTALEMLRQKQQEAEKLEADIREEKASWKIQIDYDKTNVSADFEQLREILDWEESNELQNLEKEEEDILKSLTKSETEMVQQTQYMRELISELEHRLQGSMMDLLQGVDGIIKRIENMTLKKPKTFHKNQRRVFRAPDLKGMLDMFRELTDARRYWVDVTLAPNNISHAVIAEDKRQVSSRNPQIMYQAPGTRFTFPSFVNFNYCTGVLGSQSITSGKHYWEVDVSKKSAWILGVCAGFQSDAMYNIEQNENYQPKYGYWVIGLQEGVKYSVFQDGSSHTPFAPFIVPLSVIICPDRVGVFVDYEACTVSFFNITNHGFLIYKFSQCSFSKPVFPYLNPRKCTVPMTLCSPSS [rhesus TRIM5α, 332-344 = QAPGTRFTFPSFV]",1.28 ± 0.65

# ± gives the standard deviation of the averaged measurements. Restriction of a single-cycle SIVsab GFP reporter by TRIM5α v1-loop variants in CRFK cells. Human variants: read share among cells still uninfected after two challenges over input, higher = gained restriction. Rhesus variants: share among infected cells over input, higher = lost restriction. Reporter dose not given per row. No active / inactive call per row; the paper calls a change when both replicates lie above its controls (mean + 2 SD of stop or wild-type variants, or the top frameshift score). Residues outside the varied loop are taken from Swiss-Prot. The paper reads the human single-substitution scores as noise; they and the rhesus combinations repeat poorly (rank correlation 0.3 to 0.4), indel scores repeat only for the top variants, rhesus substitutions well (0.9).
